About 64,000 (15%) of roughly 420,000 compounds were called active. The inconclusive results got no clear call from the source; some entries with a clear call stand among them for comparison. Calls come from the whole dose curve; as a rule, active = well fitted inhibition curve with a large enough effect; inconclusive = small, poorly fitted or top-dose-only effect; inactive = flat fitted curve, though single readings scatter. No potency is given beside an inconclusive call; the fits are too rough.
experiment: qHTS for Inhibitors of human tyrosyl-DNA phosphodiesterase 1 (TDP1): qHTS in cells in absence of CPT; settings: DT40 Tdp1-/- hTDP1 cells, no CPT, ATP luminescence, 48 h; activity change, negative = growth inhibition: at 46.2 µM (top of the series); note: nearly all actives have a fitted effect of over 55% in size
In short: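 Camptothecin absent (DMSO only). Human TDP1-complemented DT40 knockout cells, 400 cells/well, 37 °C for minimum 48 hr; ATP measured via CellTiter-Glo, 30 min dark incubation, luminescence.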
% is set by controls: 0 for no effect and ±100 for the full control effect; potency is the fitted concentration of half-maximal effect; tags give direction and shape of the fitted curve.

Row | SMILES | activity change, negative = growth inhibition | Potency
1 | OCC1(Cc2ccccc2C(F)(F)F)CCN(Cc2ccc3c(c2)CCO3)CC1 | inactive: 6.24% | –
2 | Cc1onc(-c2ccccc2)c1C(=O)Nc1sc2c(c1C#N)CCC2 | – | inconclusive [inhibitor, single point]
3 | CC(=O)c1ccc(NC(=O)C(C)OC(=O)C2CCN(c3ccc(C(F)(F)F)cn3)CC2)cc1 (stereo not given) | – | inconclusive [inhibitor, single point]
4 | CCCCCCCCN1C(=O)[C@H](CC(=O)NCC23CC4CC(CC(C4)C2)C3)C[C@@]2(C(=O)OC)CC(C)(C)CC=C12 | – | inconclusive [inhibitor, single point]
5 | OCCN1CCN(c2ncnc3c2sc2nc(N4CCOCC4)c4c(c23)CCC4)CC1 | – | active: 20.6 µM
6 | COCn1cnc(-c2ccccc2)c1-c1ccccc1 | – | inconclusive [inhibitor, single point]
7 | S=c1[nH]nc(COc2ccccc2)n1-c1ccc(Cl)cc1 | – | active: 23.1 µM
8 | CCOc1ccc(C(=O)NCc2nc(-c3ccc(Cl)cc3)no2)cc1OCC | – | inconclusive [inhibitor, single point]
9 | Cc1ccc(S(=O)(=O)NNC(=O)NC23CC4CC(CC(C4)C2)C3)cc1 | – | inconclusive [inhibitor, single point]
10 | Cc1c(NC(=O)c2cnn3c2NC(c2ccc(Br)cc2)CC3C(F)(F)F)c(=O)n(-c2ccccc2)n1C (stereo not given) | – | inconclusive [inhibitor, single point]
11 | CCCCCCN1CCN(C2CN(Cc3ccc([N+](=O)[O-])cc3)S(=O)(=O)C2)CC1 (stereo not given) | – | inconclusive [inhibitor, single point]
12 | COc1ccccc1N1CCN(/N=C/c2cc(Br)ccc2F)CC1 | inconclusive: -31.4% [inhibitor] | –
13 | O=C(C[C@H]1C(=O)N(c2ccc(Br)cc2)C[C@@H]1Cc1ccccc1)Nc1ccccc1 | – | inconclusive [inhibitor, single point]
14 | c1ccc2c(c1)COC(CN1CCCCC1)OC2 | inactive: -14% | –
15 | COc1ccc(-n2nc(C(=O)NCC(=O)N3CCN(c4ccccc4OC)CC3)c3ccccc3c2=O)cc1OC | – | inconclusive [inhibitor, single point]
16 | COc1ccccc1-c1nnc(SCC(=O)c2ccc(C3CCCCC3)cc2)n1Cc1ccco1 | – | active: 23.1 µM
17 | Cc1ccc2nc(-c3cccc(Br)c3)cc(C(=O)NC3CC3)c2c1 | – | inconclusive [inhibitor, full curve]
18 | CC(C)(C)[C@H]1CCC(=O)N([C@H](CC#N)Cc2ccccc2)CC1 | – | active: 17.8 µM
19 | COc1ccc2c(CC(=O)NCCN3C(=O)S/C(=C\c4cccnc4)C3=O)coc2c1 | – | inconclusive [inhibitor, single point]
20 | COc1ccc([N+](=O)[O-])cc1NC(=O)C(C)OC(=O)c1ccccn1 (stereo not given) | inactive: -1.31% | –
21 | COc1cccc(OC)c1C(=O)Nc1ccnn1C | inactive: 4.27% | –
22 | CCN(CC)S(=O)(=O)c1cc(NC(=O)C(C)N(C)CC(=O)Nc2c(C)cccc2C)ccc1C (stereo not given) | – | active: 18.4 µM
23 | CC(C)Cc1cc(C(=O)Nc2cccc(O)c2)no1 | – | inconclusive [inhibitor, single point]

Row | SMILES | activity change, negative = growth inhibition | Potency
24 | CCOC(=O)/C(C#N)=C\c1ccc(OCC(=O)Nc2ccc(C)cc2C)c(OC)c1 | inconclusive: -33% [inhibitor] | –
25 | CCN(Cc1ccccc1)S(=O)(=O)c1ccc(F)c(C(=O)Nc2cc(C)ccc2OC)c1 | – | inconclusive [inhibitor, single point]
26 | CC(Oc1ccccc1)C(=O)N=C1SC2CS(=O)(=O)CC2N1CCc1ccccc1 (stereo not given) | inactive: -0.0097% | –
27 | Cc1cccc(NC(=O)C2CCN(S(=O)(=O)c3c(C)noc3/C=C/c3ccco3)CC2)c1 | – | active: 20.6 µM
28 | CC1(C)C(=O)Nc2ccccc2N1C(=O)COc1ccc(S(=O)(=O)N2CCOCC2)cc1Cl | – | inconclusive [inhibitor, partial curve]
29 | Nc1ccc2c(c1)C(=O)C(=O)c1ccccc1-2 | – | active: 0.92 µM
30 | CCN(CC)c1ccc(S(=O)(=O)N2CCOCC2)cc1NC(=O)CSC(=S)N1CCCC1 | – | active: 10.3 µM
31 | CNc1nnc(-c2cc3cc(Cl)ccc3oc2=O)s1 | inactive: 0.827% | –
32 | COc1ccc(OCC(=O)N(Cc2cccs2)C2CCS(=O)(=O)C2)cc1 (stereo not given) | inactive: 0.699% | –
33 | CCN(CC)CCNC1=NCCn2c1cc1cc(OC)ccc12 | – | inconclusive [inhibitor, single point]
34 | CCC(=O)NCCSc1c[nH]c2ccccc12 | inactive: 3.4% | –
35 | CCc1ccccc1Nc1nc(-c2cccnc2)cs1 | – | inconclusive [inhibitor, single point]
36 | CC1(C)CC(=O)C2=C(C1)Nc1[nH]n(-c3ccccc3)c(=O)c1C2c1ccc2c(c1)OCO2 (stereo not given) | – | active: 5.17 µM
37 | COc1c(C)cccc1C(=O)Nc1ccc(N2CCN(S(C)(=O)=O)CC2)cc1 | – | inconclusive [inhibitor, single point]
38 | O=C(C1=COCCO1)N1CCN(C(c2ccccc2)c2ccccc2)CC1 | – | inconclusive [inhibitor, single point]
39 | CC1CC(C)CN(C(=O)CSc2nc(N)cc(=O)[nH]2)C1 (stereo not given) | inactive: -25.2% | –
40 | COc1ccc(-n2c(C)cc(C(=O)CN3C(=O)NC4(CCc5ccccc54)C3=O)c2C)cc1 (stereo not given) | – | active: 18.4 µM
41 | COC(=O)C[C@H]1CC[C@H](NC(=O)Nc2ccccc2F)[C@@H](CO)O1 | – | active: 23.1 µM
42 | CCC(Sc1nc2ncccc2[nH]1)C(=O)Nc1ccccc1F (stereo not given) | – | inconclusive [inhibitor, single point]
43 | CCOc1ncccc1C(=O)NCC(c1ccco1)N1CCCCC1 (stereo not given) | – | inconclusive [inhibitor, single point]
44 | CCOC(=O)c1sc(NC(=O)c2ccc(S(=O)(=O)N(C)C)cc2)cc1C | – | inconclusive [inhibitor, single point]
45 | Cc1ccc(NC(=O)Cc2n[nH]c(=O)c3ccccc23)cc1S(=O)(=O)N1CCCCCC1 | – | active: 16.4 µM

From PubChem BioAssay AID686978 (National Center for Advancing Translational Sciences (NCATS), 2013)
